# Reference: US9616120B2, “Monoclonal antibodies directed to CD20” (VET THERAPEUTICS, INC., priority 2010, dated 2017)
# T1: recombinant canine CD20 (Canis lupus familiaris, UniProt Q3C2E2, A201T/C77Y/G273E/L198V)
# T1 construct: are transfected with an expression vector encoding the full-length canine CD20 protein; expressed in transfected cells; host or cells: CHO cells (CHO-DG44)
# T1 sequence (Q3C2E2 1-297 C77Y/L198V/A201T/G273E): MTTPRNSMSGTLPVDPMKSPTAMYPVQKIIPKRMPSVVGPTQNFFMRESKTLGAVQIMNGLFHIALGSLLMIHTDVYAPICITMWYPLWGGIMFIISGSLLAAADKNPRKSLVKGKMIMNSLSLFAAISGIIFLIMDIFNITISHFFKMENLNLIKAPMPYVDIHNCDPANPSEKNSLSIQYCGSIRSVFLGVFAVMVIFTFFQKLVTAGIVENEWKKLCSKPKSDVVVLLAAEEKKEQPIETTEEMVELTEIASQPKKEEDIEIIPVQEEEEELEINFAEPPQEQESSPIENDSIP
# B1: CD20-1: anti-canine CD20 monoclonal antibody; HC SEQ ID NO. 17, LC SEQ ID NO. 20 (antibody, V domains shown)
# VH: EIQLQQSGAELVKPGASVKISCKASGYTFTDYYINWVKQRPGQGLEWIGKIGPGSGRTYYNEKFKGKATLTADKSSSTAYIQISSLTSEDSAVYFCAVLSWGQGTTLTVSS
# VL: DVQITQTPLTLSVTFGQPASISCKSSQSLLKSDGRTYLNWLLQRPGQSPKRLLYLVSKLDSGVPDRFTGSGSGTDFTLKISRVEAEDLGVYYCWQGTHFPQTFGGGTKLEIK
# modifications: canis familiaris/mus musculus
# notes: anti-canine CD20 monoclonal antibody; 20
# Target: T1, recombinant canine CD20
# Assay: Competition experiments (epitope mapping) on CHO cells expressing recombinant canine CD20
# Assay type: binding
# Method: Competition experiments are performed using standard techniques. Briefly, biotinylated recombinant anti-canine CD20 antibodies are titrated on CHO cells expressing recombinant canine CD20. Cells are first incubated with an excess of unlabelled recombinant anti-canine CD20 antibody (25 μg/mL). Thereafter, cells are incubated with a biotin-labeled antibody at 2 μg/mL. After washing, cells are incubated with streptavidin- phycoerythrin and fluorescence is analyzed by flow cytometry. An irrelevant antibody is used as negative control for inhibition. Results are expressed as a ratio between fluorescence intensity of the cells pre-incubated with the unlabelled antibody and the fluorescence intensity obtained for each biotinylated antibody alone. The percentage of inhibition (PI) is calculated by the following formula: PI=[1−(Experimental-Background)/Biotinylated antibody alone−Background)]×100%.
molecule,measurement,setting,value
B1,epitope of canine CD20 (in words),conclusion from Table 7,recognize different epitopes
same,"percentage of inhibition (PI), labeled antibody CD20-1","unlabelled competitor 25 μg/mL, biotin-labeled CD20-1 2 μg/mL",111.65%
same,"percentage of inhibition (PI), labeled antibody CD20-2","unlabelled competitor 25 μg/mL, biotin-labeled CD20-2 2 μg/mL",−22.08%
same,"percentage of inhibition (PI), labeled antibody CD20-5","unlabelled competitor 25 μg/mL, biotin-labeled CD20-5 2 μg/mL",87.68%
